Measured values as given in the supplement of paper PMC9334596.
“And” between values parts separate entries of the source, which are not always exact repeats. Equal entries are not always repeated. Over roughly 5,300 compounds, “PER2::LUC luminescence relative to vehicle control” has its median near 0.96; the highest 2% begin near 1.3. The list shows a part of the results.

Tested on: mPer2Luc MEF
Assay: PER2::LUC luminescence relative to vehicle control (fold of vehicle); higher = higher PER2::LUC reporter signal
Settings: 10 µM
Procedure, shortened: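 The value is PER2::LUC luminescence expressed as fold of vehicle control. Mouse embryonic fibroblasts carrying the mPer2Luc reporter were seeded at ~3000 cells per well in 384-well plates and grown in DMEM with 10% FBS at 37 °C and 5% CO2. Compounds from commercial libraries were added at 10 μM 48 h after seeding, and luminescence was read with the ONE-Glo luciferase assay system 24 h and 30 h after treatment, followed by an alamarBlue viability assay.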

SMILES | PER2::LUC luminescence (time after treatment 24 h) | PER2::LUC luminescence (time after treatment 30 h)
OCCN1C[C@H](O)[C@@H](O)[C@H](O)[C@H]1CO | 0.433 | 0.775
CCc1c(C(=O)NNC(=O)[C@H](O)c2cc(F)cc(F)c2)ccc(O)c1C | 1 | 0.957
CC(=O)SCC(Cc1ccccc1)C(=O)NCC(=O)OCc1ccccc1 (stereo not given) | 0.847 and 1.09 | 1.07 and 1.06
O=C(O)/C=C/c1cnc[nH]1 | 0.983 | 0.995
N[C@@H](CSCCCO)C(=O)O | 0.965 | 0.985
C[C@H](CCC(=O)O)[C@H]1CC[C@H]2[C@@H]3CC[C@@H]4C[C@H](O)CC[C@]4(C)[C@H]3CC[C@]12C | 1.01 | 0.973
Cn1c(Nc2ccc(C(F)(F)F)cc2)nc2cc(Oc3ccnc(-c4ncc(C(F)(F)F)[nH]4)c3)ccc21 | 1.1 | 1.01
CCOC(=O)[C@@]1(CCCCCCOc2ccc(Cl)cc2)CO1 | 1.05 | 0.984
COc1cc(Oc2ccnc3cc(OC)c(OC)cc23)ccc1NC(=O)NC(C)c1nccs1 (stereo not given) | 0.932 | 1.02
CCNC(=O)[C@@H]1CCCN1C(=O)[C@H](CCCN=C(N)N)NC(=O)[C@H](CC(C)C)NC(=O)[C@@H](C)NC(=O)[C@H](Cc1ccc(O)cc1)NC(=O)[C@H](CO)NC(=O)[C@H](Cc1c[nH]c2ccccc12)NC(=O)[C@H](Cc1cnc[nH]1)NC(=O)[C@@H]1CCC(=O)N1 | 1.2 | 0.959
COC(=O)C1=C(C)NC(C)=C(C(=O)OC(C)C)C1c1cccc2nonc12 (stereo not given) | 0.955 | 0.797
COCC(=O)Nc1c(I)c(C(=O)NCC(O)CO)c(I)c(C(=O)N(C)CC(O)CO)c1I (stereo not given) | 0.507 | 0.777
C[C@@]1(O)CCOC(=O)C1 | 0.929 | 0.941
CCOC(=O)Nc1ccc(NCc2ccc(F)cc2)nc1N | 0.981 | 0.937
CCOc1cc(C(C)(C)C)ccc1C1=N[C@@](C)(c2ccc(Cl)cc2)[C@@](C)(c2ccc(Cl)cc2)N1C(=O)N1CCN(CCCS(C)(=O)=O)CC1 | 0.851 | 0.64
CN1CCN(c2cc3c(cc2F)c(=O)c(C(=O)O)cn3-c2ccc(F)cc2)CC1 | 0.702 | 1.12
O=C(O)CCCC[C@@H]1SC[C@@H]2NC(=O)N[C@@H]21 | 1.14 and 0.996 | 0.894 and 0.906
CC1COc2c(N3CCN(C)CC3)c(F)cc3c(=O)c(C(=O)O)cn1c23 (stereo not given) | 0.979 | 0.779
O=C(/C=C/N1C[C@H]2C[C@@H]1CN2c1ccccn1)c1ccccc1O | 1.07 | 0.955
COc1ccc(-c2cc3nccn3c(Nc3ncccc3C(N)=O)n2)cc1OC | 0.257 | 0.352
COc1ccc(CCn2nnnc2C2(c3ccc(C)cc3)CC2)cc1 | 1.12 | 0.969
COc1ccc(CCC(=O)Nc2nc3ccc(Cl)cc3s2)cc1OC | 0.875 and 0.954 | 1.04 and 0.951
NC(=O)C[C@H](NC(=O)Cc1ccc(O)cc1O)C(=O)O | 1.03 | 1.01
C=C1C(=O)O[C@H]2[C@H]1CC/C(C)=C/CC[C@@]1(C)O[C@@H]21 | 1.06 | 0.877
COc1cccc(O)c1O | 1.06 | 0.924
CCCCOc1ccc(C(=O)CCN2CCCCC2)cc1 | 0.957 | 1.41
C[C@H](CC(=O)[C@@H]1OC1(C)C)[C@H]1C(=O)C[C@@]2(C)C3=CC[C@H]4C(C)(C)[C@@H](O[C@@H]5OC[C@@H](O)[C@H](O)[C@H]5O)CC[C@@]45C[C@@]35[C@@H](O)C[C@]12C | 0.93 | 0.911

SMILES | PER2::LUC luminescence (time after treatment 24 h) | PER2::LUC luminescence (time after treatment 30 h)
C[C@]12CC[C@H](O)CC1=CC[C@@H]1[C@@H]2CC[C@]2(C)C(c3cccnc3)=CC[C@@H]12 | 1.11 | 1.01
CC(C)(C)CC(C)(C)c1ccc(OCCOCC[N+](C)(C)Cc2ccccc2)cc1 | 0.206 | 0.228
O=[N+]([O-])c1cn2c(n1)OC[C@@H](OCc1ccc(OC(F)(F)F)cc1)C2 | 0.716 | 0.923
Cn1nnc2c(C(N)=O)ncn2c1=O | 0.957 and 0.946 | 1.09 and 0.894
CN1[C@@H]2CC[C@H]1C[C@@H](OC(=O)C(O)c1ccccc1)C2 (stereo not given in full) | 0.492 | 0.82
CN1[C@@H]2CC[C@H]1C[C@@H](OC(=O)C(O)c1ccccc1)C2 (mixture of isomers) | 0.871 | 0.782
Cc1ccc(C(=O)N(CCCN)[C@@H](c2oc3cc(Cl)ccc3c(=O)c2Cc2ccccc2)C(C)C)cc1 | 0.328 | 0.378
C=CC1=C(C)/C(=C/c2[nH]c(Cc3[nH]c(/C=C4\NC(=O)C(C)=C4C=C)c(C)c3CCC(=O)O)c(CCC(=O)O)c2C)NC1=O | 0.971 | 0.968
C=CC[N+]1([C@H]2C[C@H]3[C@@H]4CC[C@H]5C[C@H](O)[C@@H](N6CCOCC6)C[C@]5(C)[C@H]4CC[C@]3(C)[C@H]2OC(C)=O)CCCC1 | 1.11 | 1.05
CC(C)(C)NC(=O)[C@H]1CC[C@H]2[C@@H]3CC[C@H]4NC(=O)C=C[C@]4(C)[C@H]3CC[C@]12C | 0.824 | 1.22
CC(C)=CCCC1(C)C=Cc2c(O)c3c(c(CC=C(C)C)c2O1)OC12C(=CCCC1C(C)(C)O[C@@]2(C/C=C(\C)C(=O)O)C(=O)O)C3=O (stereo not given in full) | 0.994 | 0.959
C=C1CC[C@H](O)C/C1=C/C=C1\CCC[C@]2(C)[C@@H]([C@H](C)/C=C/[C@H](C)C(C)C)CC[C@@H]12 | 0.957 and 0.908 | 1.15 and 0.89
Nc1nc(N)c2nc(-c3ccccc3)c(N)nc2n1 | 0.822 and 1.03 | 1.17 and 0.912
C[N+](C)(C)CC(O)CC(=O)[O-] (racemic) | 1.07 and 0.921 | 1.03 and 0.954
CC(=O)NC(CC(C)C)C(=O)O (stereo not given) | 1 | 1.05
CC(C)C(=O)c1c(C(C)C)nn2ccccc12 | 1.04 | 0.829
C[C@H]1[C@H]2CC[C@H]3[C@@H]4CC=C5C[C@@H](N(C)C)CC[C@]5(C)[C@H]4CC[C@]23CN1C | 0.747 | 0.801
O=C(O)c1c[nH]c(=O)cn1 | 1.08 | 0.999
Nc1ncnc2c1ncn2[C@@H]1O[C@@H]2COP(=O)(O)O[C@H]2[C@H]1O | 1.08 | 0.954
CC1=C(/C=C/C(C)=C/C=C/C(C)=C/C=C/C=C(C)/C=C/C=C(C)/C=C/C(=O)[C@]2(C)C[C@@H](O)CC2(C)C)C(C)(C)C[C@H](O)C1 | 0.964 | 0.922
CCS(=O)(=O)N1CCN(c2ccc(Nc3ncc(C(N)=O)c(NC4CC4)n3)cc2)CC1 | 0.537 | 0.546
Cn1cnc(=N)c2[nH]cnc21 | 1.12 | 1.07
C[N+](C)(C)C[C@H](O)CC(=O)[O-] | 1.05 | 1.03
O=C(O[C@@H]1Cc2c(O)cc(O)cc2O[C@@H]1c1cc(O)c(O)c(O)c1-c1c([C@H]2Oc3cc(O)cc(O)c3C[C@H]2OC(=O)c2cc(O)c(O)c(O)c2)cc(O)c(O)c1O)c1cc(O)c(O)c(O)c1 | 0.983 | 0.904
CC(=O)/C(=C\c1ccccc1)CC(=O)O | 0.926 | 0.97
OC(CCN1CCCC1)(c1ccccc1)C1CCCCC1 (stereo not given) | 0.699 | 0.797
CC(C)NCC(O)COc1cccc2[nH]ccc12 (stereo not given) | 0.955 | 0.911

SMILES | PER2::LUC luminescence (time after treatment 24 h) | PER2::LUC luminescence (time after treatment 30 h)
CC(C)=CCC[C@@H](C)[C@@H]1CC[C@]2(C)C3=C(CC[C@@]12C)[C@@]1(C)CC[C@H](O)C(C)(C)[C@@H]1CC3 | 1.01 | 1.15
O=C1NCC(=O)N2[C@H](c3ccc4c(c3)OCO4)c3[nH]c4ccccc4c3C[C@H]12 | 1.02 | 1.07
COC(=O)[C@H]1[C@H]2C[C@H]3c4[nH]c5ccccc5c4CCN3C[C@H]2CC[C@@H]1O | 0.94 and 0.903 | 1.05 and 0.815
C=C(C)[C@@H]1CC[C@]2(C)CC[C@]3(C)[C@H](CC[C@@H]4[C@@]5(C)CC[C@H](OC(C)=O)C(C)(C)[C@@H]5CC[C@]43C)[C@@H]12 | 1.02 | 0.98
COC(=O)C(C)(N)Cc1ccc(O)cc1 (racemic) | 1.07 | 0.857
CN1CCN(c2ccc(C(=O)Nc3cc(-c4cccc(NS(=O)(=O)c5ccccc5)c4)[nH]n3)cc2)CC1 | 0.63 | 0.549
CC(CN(C)C)CN1c2ccccc2CCc2ccccc21 (stereo not given) | 0.653 | 0.699
Cn1c(N2CCCCS2(=O)=O)nc(C(=O)NCc2ccc(F)cc2)c(O)c1=O | 1.21 | 1.11
NC(=O)c1ccccc1 | 0.926 | 1.02
O=C(O)CCCCCCCC(O)C(O)CCCCCCO (stereo not given) | 0.99 | 0.949
COC(=O)[C@@]1(C)CCC[C@]2(C)c3ccc(O)c(C(C)C)c3CCC12 (stereo not given in full) | 0.896 | 0.996
CC1(C)O[C@@H]2C[C@H]3[C@@H]4C[C@H](F)C5=CC(=O)C=C[C@]5(C)[C@H]4[C@@H](O)C[C@]3(C)[C@]2(C(=O)CO)O1 | 0.756 | 1.14
Cn1cnc2c(F)c(Nc3ccc(Br)cc3Cl)c(C(=O)NOCCO)cc21 | 0.913 and 0.678 | 0.82 and 0.641
Nc1nc(N)c2nc(-c3cccc(O)c3)c(-c3cccc(O)c3)nc2n1 | 1.09 | 1.04
C[C@H](CS)C(=O)N1CCC[C@H]1C(=O)O | 1.08 | 0.774
CN(Cc1cc(Br)cc(Br)c1N)C1CCCCC1 | 0.918 | 0.763
C[C@H](Cc1ccc(O)c(O)c1)[C@@H](C)Cc1ccc(O)c(O)c1 | 1.02 | 1.14
NCCc1ccc(O)c(O)c1 | 0.939 and 0.903 | 0.914 and 0.872
O=C(/C=C/c1cccnc1)NCCCCC1CCN(C(=O)c2ccccc2)CC1 | 0.942 and 0.881 | 0.638 and 0.631
COc1c(Cl)cc2c([nH]c3cnccc32)c1NC(=O)c1cccnc1C | 1.06 | 1.03
COc1cc(N2CCOCC2)ccc1NC(=O)c1csc(-c2cccnc2)n1 | 0.906 | 1.02
Cc1c(Nc2ncccc2C(=O)O)cccc1C(F)(F)F | 0.962 and 0.968 | 1.06 and 1
CC[C@H](c1ccc(O)cc1)[C@@H](CC)c1ccc(O)cc1 | 1.08 | 1.14
COc1ccc(CCO[C@@H]2CCCC[C@H]2N2CC[C@@H](O)C2)cc1OC | 0.953 | 0.958
COc1cc(N)c(Cl)cc1C(=O)OCCN1CCCCC1 | 1.03 | 0.733
O=C(NCc1cccs1)c1cc2nc(-c3ccco3)cc(C(F)(F)Cl)n2n1 | 1.03 | 1.11
